In all, about 360,000 compounds went through this assay and about 17,000 (4.7%) were called active. This list was built around the results that the source calls inconclusive (neither active nor inactive); the mix of calls is not that of the screen. No stated cut-off is given here; in the data, active means activity change below about -50%; inconclusive means mostly about -30% to -49%; inactive means weaker than that.
Assay: qHTS for Inhibitors of Inflammasome Signaling: IL-1-beta AlphaLISA Primary Screen
Details: THP-1 LPS/ATP IL-1B secretion, 16 h; at 57.5 µM, active compounds read low
Procedure, shortened: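 Secreted IL-1B measured by AlphaLISA bead assay after 16 h compound exposure of THP-1 cells; compounds (final up to 57.5 uM) added 1 h before LPS (250 ng/mL) and ATP (1.25 mM) stimulation; lower signal means less secretion.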
On the % scale 0 is the no-effect control and ±100 the full control effect.

Structure (SMILES) | activity change
COc1ccc(-n2nc(C(=O)c3cccs3)cc(-c3nc4ccccc4[nH]3)c2=N)cc1 | inconclusive: -36.4%
CCn1cc(C(=O)NCCN(C)C)c(=O)c2cc(F)c(N3CCN(C)CC3)cc21 | inconclusive: -35%
Cc1cc(C(=O)CSc2nnc(-c3cccc(F)c3)n2N)c(C)n1Cc1ccc2c(c1)OCO2 | inconclusive: -36.8%
CC1CCN(CCCNC(=O)C2CCN(S(=O)(=O)N3CCC4(CC3)OCCO4)CC2)CC1 | inactive: 0.673%
COc1ccc(CN(C)CC2CCCN(CCc3ccc(Cl)cc3)C2)cc1OC (stereo not given) | active: -86.3%
COc1cc(/C=C2/SC(=O)N(Cc3ccccc3)C2=O)ccc1OCc1ccncc1 | inconclusive: -33.4%
COc1ccccc1C(=O)NNC(=O)Cc1ccccc1 | inactive: 18.1%
CCN(CC)CCN(C(=O)c1c(F)cccc1F)c1nc2cc(C)cc(C)c2s1 | inconclusive: -32.5%
COc1cc2c(cc1NC(=O)CN1CCN(S(=O)(=O)c3ccccc3F)CC1)oc1ccccc12 | inactive: 37.4%
Cc1ccc(Nc2ccc(NCc3ccccc3)nn2)cc1C | inconclusive: -40.4%
COc1cc(NC(=S)NC2CC(C)(C)NC(C)(C)C2)c(OC)cc1Cl | inconclusive: -36.6%
Cc1cc2c(ncn2C(C)C)c(NS(=O)(=O)c2ccc(F)cc2)c1C | inconclusive: -40.3%
CCCCNC(=S)N1CCC(Cc2ccccc2)CC1 | inconclusive: -43.1%
O=C(N/N=C/C=C/c1ccccc1)c1cc(C2CC2)[nH]n1 | active: -54.1%
Cc1nc(-c2ccccc2)sc1C1(C)CC(c2ccc([N+](=O)[O-])cc2)=NO1 (stereo not given) | inconclusive: -33.6%
CCC(C)(C)c1ccc(OCCCC[n+]2cccc(C)c2C)c(C(C)(C)CC)c1 | active: -93.1%
CCCn1nc(NC(=O)C2CCCO2)c2cc3ccc(C)cc3nc21 (stereo not given) | inconclusive: -49.8%
Cc1noc(C)c1COc1ccc(C(=O)N2CCN(c3cccc(Cl)c3)CC2)cc1 | inconclusive: -32.9%
CCN1CC(CN(C)Cc2nc(-c3ccc(OC)c4ccccc34)oc2C)CC1=O (stereo not given) | inconclusive: -31.8%
CCc1nc2ccc(C(=O)NCc3ccc4c(c3)OCO4)cn2c1N(C)Cc1cccs1 | inconclusive: -40.4%
O=C(NCc1ccccc1)[C@@H]1CCCN1C(=O)[C@@H]1CCCN1C(=O)c1cccs1 | active: -57%
Cc1ccc(Oc2coc3cc(O)ccc3c2=O)cc1 | inactive: 0.389%
CCCc1noc2c1/C(=N\O)CCC2 | inconclusive: -36%
Cc1cc(NC(=O)CCCN2C(=O)c3cccc4cccc(c34)C2=O)no1 | inactive: -2.68%
COc1ccc(C(=O)C[n+]2cn(C(F)F)c3ccccc32)c(F)c1 | inconclusive: -36.2%
CCNC(=O)Nc1ccc(OC)cc1OC | inactive: 10.7%
COc1cccc(CNC(=O)Cc2ccc(-c3ccccc3)cc2)c1 | inactive: 21.9%
CCOC(=O)C(=Cc1c[nH]c2ccc(S(=O)(=O)N(C)C)cc12)C(=O)OCC | active: -101%

Structure (SMILES) | activity change
COc1ccc(NC(=O)Nc2nc(C(N)Cc3ccc(C(F)(F)F)cc3)cs2)cc1 (stereo not given) | inconclusive: -31.5%
COC(=O)[C@]12CCCCC=C1N(CCC1=CCCCC1)C(=O)[C@H](CC(=O)NCc1cccc(C(F)(F)F)c1)C2 | inconclusive: -40.3%
Cc1cccc(-c2nnc(SCC#N)n2-c2cccc(Cl)c2)c1 | inconclusive: -31.8%
CC[C@]1(c2cccc(C)c2)C(=O)N(C(=O)OC)N1C(=O)OC | active: -105%
Cc1ccc(C(=O)c2ccccc2C(=O)OCC(=O)N2CC(C)CC(C)C2)cc1 (stereo not given) | inconclusive: -49.6%
COc1cc(/C=C/C=C2/CC/C(=C/C=C/c3ccc(O)c(OC)c3)C2=O)ccc1O | active: -91.9%
COc1ccc(S(=O)(=O)NCc2cccnc2)cc1NC(=O)c1ccccc1C | inactive: 11%
CCOC(=O)C1=C(CNCCc2ccc(Cl)cc2)NC(=O)NC1c1ccc2c(c1)OCO2 (stereo not given) | inconclusive: -49.8%
Cc1nc2ccc(C(=O)NCCCN3CCCC3=O)cn2c1N(C)C(=O)CCc1ccccc1 | inactive: -8.53%
Cc1ccc(CSC2=NCCN2C(=O)c2ccc(S(=O)(=O)N(C)C)cc2)cc1 | inactive: 26.1%
NC(=O)[C@H]1CC2(CC(c3cccc(NC(=O)COc4ccc(Cl)cc4)c3)=NO2)CN1C(=O)Cc1ccc([N+](=O)[O-])cc1 (stereo not given in full) | inconclusive: -49.4%
Cc1ccccc1C(=O)Nc1ccccn1 | inactive: 0%
COc1ccc(CN2C(=O)C(CC(=O)NCc3ccco3)CC(C(=O)N3CCOCC3)=C2C)cc1 (stereo not given) | inactive: -13.4%
C#CC[N+](C)(C)CC#Cc1ccc(C)cc1 | inconclusive: -31.7%
Cc1cccc(Nc2nc(-c3c(C)nc4ccccn34)cs2)c1 | active: -96.1%
Cc1ccc(S(=O)(=O)N2CCOCC2)cc1NC(=O)CSc1nnc(N)s1 | inactive: 18.9%
CCc1nc2ccc(C(=O)NCCOc3ccc(OC)cc3)cn2c1N(C)Cc1cccs1 | active: -51.9%
CCOC(=O)C(C)C(C)=O (stereo not given) | inconclusive: -33.7%
CCC(=O)NCCc1nc2cc(NC(=O)c3ccccc3OC)ccc2n1C | inconclusive: -42.9%
COc1ccccc1C(C(=O)c1ccccc1)c1ccc(O)cc1 (stereo not given) | inconclusive: -32%
NC(=O)c1ccc(-c2nnc(Nc3ccc(S(N)(=O)=O)cc3)c3ccccc23)cc1 | inactive: 22.2%
Cc1nn(-c2ccccc2)c2sc(C(=O)N3CCOCC3)cc12 | inconclusive: -36.6%
Oc1ccc2ccccc2c1CNc1ccc2ccccc2c1 | active: -100%
O=[N+]([O-])c1cc(S(=O)(=O)N2CCCC2)ccc1OCCOc1ccccc1 | inconclusive: -43.6%
Cc1ccccc1CS(=O)(=O)c1nnc([C@H](Cc2ccccc2)NC(=O)OC(C)(C)C)o1 | inconclusive: -34.6%
O=C(CSc1nnc(C2CC2)n1C1CC1)Nc1cccc(Br)c1 | inconclusive: -41%
Cc1cccc(N(C(=O)Cc2cccs2)C(C(=O)NC2CCCC2)c2ccsc2)c1 (stereo not given) | inactive: 0%

Source: PubChem BioAssay AID743279 (National Center for Advancing Translational Sciences (NCATS), 2014)
